Test results as given in PubChem BioAssay AID485281 (National Center for Advancing Translational Sciences (NCATS), 2010).
Among all 350,000 compounds or so, about 260 (0.074%) were called active. This list was built around the results that the source calls inconclusive (neither active nor inactive); the mix of calls is not that of the screen. The call rests on the fitted dose curve; in most records, active means well fitted inhibition curve with a large enough effect; inconclusive means small, poorly fitted or top-dose-only effect; inactive means no such curve, though single readings can be large or run the other way. A potency beside an inconclusive call is a rough fit, not a confirmed value.

target: Ferritin light chain (Equus caballus) (UniProt P02791); assay: qHTS Assay for Identification of Novel General Anesthetics; conditions: apoferritin/1-aminoanthracene competitive binding, fluorescence; series mostly up to 77.5 µM; further: nearly all actives have a fitted effect of over 20% in size
Sequence of UniProt P02791 (P02791 whole entry, looked up): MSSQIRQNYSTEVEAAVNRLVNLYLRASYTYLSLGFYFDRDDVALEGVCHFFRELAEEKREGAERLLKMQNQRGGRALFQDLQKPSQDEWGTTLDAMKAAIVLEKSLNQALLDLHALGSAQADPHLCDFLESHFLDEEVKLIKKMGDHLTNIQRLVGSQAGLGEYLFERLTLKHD
Method in brief: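 Horse-spleen apoferritin (10 uM) was mixed with 50% saturated 1-aminoanthracene in PBS, exposed to compounds for 10 min at room temperature, and read for fluorescence (ex 380 nm, em 535 nm). Competitive displacement was fitted with a four-parameter Hill equation.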
Potency means the concentration at half of the fitted maximal effect; tags describe the fitted curve by direction and shape.

**Q.** How did the Potency turn out when CC1CCN(CC(O)COCCC23CC4CC(CC(C4)C2)C3)CC1 (stereo not drawn) was run?
**A.** inconclusive: 12.6 µM [inhibitor, partial curve]

**Q.** CC(C)c1ccccc1NS(=O)(=O)c1cccs1 was tested. Which Potency did it give?
**A.** inconclusive: 31.6 µM [inhibitor, partial curve]

**Q.** For O=C(NCc1ccc(F)cc1)c1ccc2c(Cl)c3c(nc2c1)CCCC3, which Potency is on record?
**A.** inconclusive: 31.6 µM [inhibitor, partial curve]

**Q.** With CC(C)N1CCc2c(sc(NC(=O)c3ccc(C(=O)c4ccccc4)cc3)c2C(N)=O)C1 as the molecule, how does the Potency read?
**A.** inconclusive: 35.5 µM [inhibitor, single point]

**Q.** Fc1ccc(-c2noc3ncnc(N4CCN(c5ccccc5)CC4)c23)cc1 was tested. Which Potency did it give?
**A.** inactive

**Q.** With Cc1ccc(Nc2nc(N)nc(CN3CCN(c4ccccc4F)CC3)n2)cc1 as the molecule, how does the Potency read?
**A.** inactive

**Q.** How did the Potency turn out when CC(=O)N1c2ccc(S(=O)(=O)N3CCC(C(=O)NC4CCCC(C)C4C)CC3)cc2CC1C (stereo not drawn) was run?
**A.** inconclusive: 35.5 µM [inhibitor, partial curve]

**Q.** For COCCc1nn2c(=O)cc(COC(=O)c3ccc4c(c3)OCO4)nc2s1, which Potency is on record?
**A.** inconclusive: 25.1 µM [inhibitor, single point]

**Q.** How did the Potency turn out when Cc1ccc(-c2cc(C(=O)NCc3cnn(C)c3C)c3cc(Br)ccc3n2)cc1 was run?
**A.** inconclusive: 31.6 µM [inhibitor, partial curve]

**Q.** Which Potency does the source give for O=C(COC(=O)c1ccc(S(=O)(=O)NCc2ccco2)cc1)NC1CCCCCC1 here?
**A.** active: 35.5 µM

**Q.** For NC(=S)N/N=C/c1ccc(C23CC4CC(CC(C4)C2)C3)cc1, which Potency is on record?
**A.** inconclusive: 3.98 µM [inhibitor, full curve]

**Q.** CCCCCCCCCCCCCCCC[N+](C)(C)CCN(Cc1ccc(OC)cc1)c1ncccn1 was tested. Which Potency did it give?
**A.** inconclusive: 22.4 µM [inhibitor, single point]

**Q.** With Cn1cnnc1SCc1ccc(C(=O)N=Nc2c(O)n(Cc3ccc(Cl)cc3)c3ccccc23)cc1 as the molecule, how does the Potency read?
**A.** inconclusive: 56.2 µM [inhibitor, single point]

**Q.** For Cc1ccccc1NC(=O)c1ccc(CN2CCC(Cc3ccccc3)CC2)cc1, which Potency is on record?
**A.** inconclusive: 4.47 µM [inhibitor, full curve, poor fit]

**Q.** How did the Potency turn out when O=C(CNC(=O)c1cccs1)OCC(=O)c1ccc(Br)cc1 was run?
**A.** inconclusive: 20 µM [inhibitor, partial curve]

**Q.** How did the Potency turn out when Cc1ccc2c(c1)N(C(=O)CCC(=O)NCc1cccc(Br)c1)CC(C)O2 (stereo not drawn) was run?
**A.** inconclusive: 35.5 µM [inhibitor, single point]

**Q.** How did the Potency turn out when Cc1cc(-c2ccc(C(=O)O)s2)cnc1N was run?
**A.** inactive

**Q.** How did the Potency turn out when CC(C)Oc1c(Br)cc(Br)cc1/C=N/NC(N)=S was run?
**A.** inconclusive: 20 µM [inhibitor, partial curve]
